# Assay results: the supplement of paper PMC8728848
# Some of the results follow.
# Assays:
# Assay in all cases: glycan array binding signal (z-score within array); higher = stronger binding
# Settings in all cases: glycan notation: IUPAC condensed, linker removed
# [1] = target: Gal(b1-4)GlcNAc(b1-3)Gal(b1-4)GlcNAc(b1-2)[Gal(b1-4)GlcNAc(b1-3)Gal(b1-4)GlcNAc(b1-6)]Man(a1-6)[Gal(b1-4)GlcNAc(b1-3)Gal(b1-4)GlcNAc(b1-2)Man(a1-3)]Man(b1-4)GlcNAc(b1-4)GlcNAc
# How it was run: (§1)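 Glycan array data came from 3228 arrays in the Consortium for Functional Glycomics database, and only arrays with an available protein sequence were kept. Glycan names were put into IUPAC-condensed notation, and columns mapping to the same glycan were averaged. The binding signal is a within-array Z-score, averaged across arrays of one protein sequence run at different concentrations or buffers and across linkers. A negative Z-score can be read as non-binding.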
# [2] = target: Gal(b1-4)GlcNAc(b1-3)Gal(b1-4)GlcNAc(b1-2)[Gal(b1-4)GlcNAc(b1-3)Gal(b1-4)GlcNAc(b1-6)]Man(a1-6)[Gal(b1-4)GlcNAc(b1-3)Gal(b1-4)GlcNAc(b1-2)Man(a1-3)]Man(b1-4)GlcNAc(b1-4)[Fuc(a1-6)]GlcNAc
# How it was run: as §1
# [3] = target: Gal(b1-4)GlcNAc(b1-3)Gal(b1-4)GlcNAc(b1-3)Gal(b1-4)GlcNAc
# How it was run: as §1
# [4] = target: Gal(b1-4)GlcNAc(b1-3)Gal(b1-4)GlcNAc(b1-3)Gal(b1-4)GlcNAc(b1-2)Man(a1-3)[Gal(b1-4)GlcNAc(b1-3)Gal(b1-4)GlcNAc(b1-3)Gal(b1-4)GlcNAc(b1-2)Man(a1-6)]Man(b1-4)GlcNAc(b1-4)GlcNAc
# How it was run: as §1
# [5] = target: Gal(b1-4)GlcNAc(b1-3)Gal(b1-4)GlcNAc(b1-3)Gal(b1-4)GlcNAc(b1-2)Man(a1-3)[Gal(b1-4)GlcNAc(b1-3)Gal(b1-4)GlcNAc(b1-3)Gal(b1-4)GlcNAc(b1-2)Man(a1-6)]Man(b1-4)GlcNAc(b1-4)[Fuc(a1-6)]GlcNAc
# How it was run: as §1
# [6] = target: Gal(b1-4)GlcNAc(b1-3)Gal(b1-4)GlcNAc(b1-3)Gal(b1-4)GlcNAc(b1-2)[Gal(b1-4)GlcNAc(b1-3)Gal(b1-4)GlcNAc(b1-3)Gal(b1-4)GlcNAc(b1-6)]Man(a1-6)[Gal(b1-4)GlcNAc(b1-3)Gal(b1-4)GlcNAc(b1-3)Gal(b1-4)GlcNAc(b1-2)Man(a1-3)]Man(b1-4)GlcNAc(b1-4)[Fuc(a1-6)]GlcNAc
# How it was run: as §1
# [7] = target: Gal(b1-4)GlcNAc(b1-3)Gal(b1-4)GlcNAc(b1-3)Gal(b1-4)GlcNAc(b1-3)Gal(b1-4)GlcNAc(b1-2)Man(a1-3)[Gal(b1-4)GlcNAc(b1-3)Gal(b1-4)GlcNAc(b1-3)Gal(b1-4)GlcNAc(b1-3)Gal(b1-4)GlcNAc(b1-2)Man(a1-6)]Man(b1-4)GlcNAc(b1-4)GlcNAc
# How it was run: as §1
# [8] = target: Gal(b1-4)GlcNAc(b1-3)Gal(b1-4)GlcNAc(b1-3)Gal(b1-4)GlcNAc(b1-3)Gal(b1-4)GlcNAc(b1-2)Man(a1-3)[Gal(b1-4)GlcNAc(b1-3)Gal(b1-4)GlcNAc(b1-3)Gal(b1-4)GlcNAc(b1-3)Gal(b1-4)GlcNAc(b1-2)Man(a1-6)]Man(b1-4)GlcNAc(b1-4)[Fuc(a1-6)]GlcNAc
# How it was run: as §1
# [9] = target: Gal(b1-4)GlcNAc(b1-3)Gal(b1-4)GlcNAc(b1-3)Gal(b1-4)GlcNAc(b1-3)Gal(b1-4)GlcNAc(b1-2)[Gal(b1-4)GlcNAc(b1-3)Gal(b1-4)GlcNAc(b1-3)Gal(b1-4)GlcNAc(b1-3)Gal(b1-4)GlcNAc(b1-6)]Man(a1-6)[Gal(b1-4)GlcNAc(b1-3)Gal(b1-4)GlcNAc(b1-3)Gal(b1-4)GlcNAc(b1-3)Gal(b1-4)GlcNAc(b1-2)Man(a1-3)]Man(b1-4)GlcNAc(b1-4)[Fuc(a1-6)]GlcNAc
# How it was run: as §1
# [10] = target: Gal(b1-4)GlcNAc(b1-3)Gal(b1-4)GlcNAc(b1-3)Gal(b1-4)GlcNAc(b1-3)Gal(b1-4)GlcNAc(b1-3)Gal(b1-4)GlcNAc(b1-2)Man(a1-3)[Gal(b1-4)GlcNAc(b1-3)Gal(b1-4)GlcNAc(b1-3)Gal(b1-4)GlcNAc(b1-3)Gal(b1-4)GlcNAc(b1-3)Gal(b1-4)GlcNAc(b1-2)Man(a1-6)]Man(b1-4)GlcNAc(b1-4)GlcNAc
# How it was run: as §1
# [11] = target: Gal(b1-4)GlcNAc(b1-3)Gal(b1-4)GlcNAc(b1-3)Gal(b1-4)GlcNAc(b1-3)Gal(b1-4)GlcNAc(b1-3)Gal(b1-4)GlcNAc(b1-2)Man(a1-3)[Gal(b1-4)GlcNAc(b1-3)Gal(b1-4)GlcNAc(b1-3)Gal(b1-4)GlcNAc(b1-3)Gal(b1-4)GlcNAc(b1-3)Gal(b1-4)GlcNAc(b1-2)Man(a1-6)]Man(b1-4)GlcNAc(b1-4)[Fuc(a1-6)]GlcNAc
# How it was run: as §1
# [12] = target: Gal(b1-4)GlcNAc(b1-3)Gal(b1-4)GlcNAc(b1-3)Gal(b1-4)GlcNAc(b1-3)Gal(b1-4)GlcNAc(b1-3)Gal(b1-4)GlcNAc(b1-2)[Gal(b1-4)GlcNAc(b1-3)Gal(b1-4)GlcNAc(b1-3)Gal(b1-4)GlcNAc(b1-3)Gal(b1-4)GlcNAc(b1-3)Gal(b1-4)GlcNAc(b1-6)]Man(a1-6)[Gal(b1-4)GlcNAc(b1-3)Gal(b1-4)GlcNAc(b1-3)Gal(b1-4)GlcNAc(b1-3)Gal(b1-4)GlcNAc(b1-3)Gal(b1-4)GlcNAc(b1-2)Man(a1-3)]Man(b1-4)GlcNAc(b1-4)[Fuc(a1-6)]GlcNAc
# How it was run: as §1
# [13] = target: Gal(b1-4)GlcNAc(b1-3)Gal(b1-4)GlcNAc(b1-3)Gal(b1-4)GlcNAc(b1-3)Gal(b1-4)GlcNAc(b1-3)Gal(b1-4)GlcNAc(b1-3)Gal(b1-4)GlcNAc(b1-2)Man(a1-3)[Gal(b1-4)GlcNAc(b1-3)Gal(b1-4)GlcNAc(b1-3)Gal(b1-4)GlcNAc(b1-3)Gal(b1-4)GlcNAc(b1-3)Gal(b1-4)GlcNAc(b1-3)Gal(b1-4)GlcNAc(b1-2)Man(a1-6)]Man(b1-4)GlcNAc(b1-4)GlcNAc
# How it was run: as §1
# [14] = target: Gal(b1-4)GlcNAc(b1-3)Gal(b1-4)GlcNAc(b1-3)GalNAc
# How it was run: as §1
# [15] = target: Gal(b1-4)GlcNAc(b1-3)Gal(b1-4)GlcNAc(b1-3)[Gal(b1-4)GlcNAc(b1-3)Gal(b1-4)GlcNAc(b1-6)]GalNAc
# How it was run: as §1
# [16] = target: Gal(b1-4)GlcNAc(b1-3)Gal(b1-4)GlcNAc(b1-6)[Gal(b1-3)]GalNAc
# How it was run: as §1
# [17] = target: Gal(b1-4)GlcNAc(b1-3)Gal(b1-4)[Fuc(a1-3)]GlcNAc(b1-3)Gal(b1-4)[Fuc(a1-3)]GlcNAc
# How it was run: as §1
# [18] = target: Gal(b1-4)GlcNAc(b1-3)GalNAc
# How it was run: as §1
# [19] = target: Gal(b1-4)GlcNAc(b1-3)[Fuc(a1-3)GlcNAc(b1-6)]Gal(b1-4)Glc
# How it was run: as §1
# [20] = target: Gal(b1-4)GlcNAc(b1-3)[Gal(b1-4)GlcNAc(b1-6)]Gal(b1-4)GlcNAc
# How it was run: as §1
# [21] = target: Gal(b1-4)GlcNAc(b1-3)[GlcNAc(b1-6)]Gal(b1-4)GlcNAc
# How it was run: as §1
# [22] = target: Gal(b1-4)GlcNAc(b1-6)Gal(b1-4)GlcNAc
# How it was run: as §1
# [23] = target: Gal(b1-4)GlcNAc(b1-6)GalNAc
# How it was run: as §1
# [24] = target: Gal(b1-4)GlcNAc(b1-6)[Gal(b1-3)]GalNAc
# How it was run: as §1
# [25] = target: Gal(b1-4)GlcNAc(b1-6)[Gal(b1-4)GlcNAc(b1-3)]GalNAc
# How it was run: as §1
# Gal(b1-4)GlcNAc6P = target: Gal(b1-4)GlcNAc6P
# How it was run: as §1
# Gal(b1-6)Gal = target: Gal(b1-6)Gal
# How it was run: as §1
# Gal3S(b1-3)GalNAc = target: Gal3S(b1-3)GalNAc
# How it was run: as §1
# Gal3S(b1-3)GlcNAc = target: Gal3S(b1-3)GlcNAc
# How it was run: as §1
# [26] = target: Gal3S(b1-3)[Fuc(a1-4)]GlcNAc
# How it was run: as §1
# Gal3S(b1-4)Glc = target: Gal3S(b1-4)Glc
# How it was run: as §1
# Gal3S(b1-4)Glc6S = target: Gal3S(b1-4)Glc6S
# How it was run: as §1
# Gal3S(b1-4)GlcNAc = target: Gal3S(b1-4)GlcNAc
# How it was run: as §1
# [27] = target: Gal3S(b1-4)[Fuc(a1-3)]Glc6S
# How it was run: as §1
# [28] = target: Gal3S(b1-4)[Fuc(a1-3)]GlcNAc
# How it was run: as §1
# [29] = target: Gal3S(b1-4)[Fuc(a1-3)]GlcNAc6S
# How it was run: as §1
# Gal3S4S(b1-4)GlcNAc = target: Gal3S4S(b1-4)GlcNAc
# How it was run: as §1
binder,measurement,setting,value
PX14367A-bth-493-35-493 (Bacteroides thetaiotaomicron) (protein) VSSDQVAVAGNAERLFNGAWYNLFEYGTTYANIGYRALQCQDDMMASDVVSRPKYGFNSSYQFNDVAIPSDGRTSFAWYLIYKTIDNCNTAISIKGDSEELRQAQGQALALRAFCYLHLVQHYQFTYLKDKDAPCVPIYTEPTTSGTKPKGKSTVAQVYQQIFDDLNLAQDYLTNYVRKGDGQKFKPNTDVVNGLMARAYLLTGQWGEAAKAAEAARKGYSLMTTTAEYEGFNNISNKEWIWGSPQTLSQSDASYNFYYLDATYVGAYSSFMADPHLMDTFVKGDIRLPLFQWMREGYLGYKKFHMRSDDTADLVLMRSAEMYLIEAEAKVRDGVALDQAVAPLNTLRTARGVGNYDVTGKTKEQVIDEILMERRRELWGEGFGITDVLRNQKAVERMALSEDMQKTEVDCWQEGGSFAKRNPLGHWFLNFPDGKAFSANSSYYLYAIPEKEINANPNL,glycan array binding signal (z-score),[1],0.133
same,glycan array binding signal (z-score),[2],2.18
same,glycan array binding signal (z-score),[3],0.135
same,glycan array binding signal (z-score),[4],2.81
same,glycan array binding signal (z-score),[5],2.6
same,glycan array binding signal (z-score),[6],2.31
same,glycan array binding signal (z-score),[7],1.4
same,glycan array binding signal (z-score),[8],2.51
same,glycan array binding signal (z-score),[9],1.66
same,glycan array binding signal (z-score),[10],1.34
same,glycan array binding signal (z-score),[11],6.87
same,glycan array binding signal (z-score),[12],0.964
same,glycan array binding signal (z-score),[13],1.98
same,glycan array binding signal (z-score),[14],0.056
same,glycan array binding signal (z-score),[15],1.74
same,glycan array binding signal (z-score),[16],0.226
same,glycan array binding signal (z-score),[17],-0.418
same,glycan array binding signal (z-score),[18],-0.545
same,glycan array binding signal (z-score),[19],-0.261
same,glycan array binding signal (z-score),[20],0.049
same,glycan array binding signal (z-score),[21],-0.767
same,glycan array binding signal (z-score),[22],-0.294
same,glycan array binding signal (z-score),[23],-0.262
same,glycan array binding signal (z-score),[24],-0.558
same,glycan array binding signal (z-score),[25],-0.382
same,glycan array binding signal (z-score),Gal(b1-4)GlcNAc6P,-0.6
same,glycan array binding signal (z-score),Gal(b1-6)Gal,-0.332
same,glycan array binding signal (z-score),Gal3S(b1-3)GalNAc,-0.342
same,glycan array binding signal (z-score),Gal3S(b1-3)GlcNAc,0.011
same,glycan array binding signal (z-score),[26],-0.182
same,glycan array binding signal (z-score),Gal3S(b1-4)Glc,-0.36
same,glycan array binding signal (z-score),Gal3S(b1-4)Glc6S,-0.202
same,glycan array binding signal (z-score),Gal3S(b1-4)GlcNAc,0.035
same,glycan array binding signal (z-score),[27],-0.267
same,glycan array binding signal (z-score),[28],-0.177
same,glycan array binding signal (z-score),[29],0.004
same,glycan array binding signal (z-score),Gal3S4S(b1-4)GlcNAc,0.161
